Among the data in PubChem BioAssay (NCI) are GI50 and TGI values, retold here.

Some test systems named below: A549 NSCLC; HCT-15 colon; SK-MEL-5 melanoma; U251 CNS.
Holding throughout (assay): inhibition of tumour cell growth, NCI panel, 48 h

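Protocol summary: plate cells (96-well), add compound at 5 concentrations, incubate 48 h, interpolate endpoints linearly. GI50 = concentration required for 50% inhibition of growth.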 Certain results were filed several times, with different values. The list is limited to them. The source may hold further records. The tests behind the records often covered other concentration ranges, not given here; some values may only mark the edge of a range.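 TGI denotes the concentration required for complete inhibition of growth.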

Regarding `CN1C(=O)[C@]23SSC1(C)C(=O)N2[C@H]1Nc2ccccc2C1([C@@]12c4ccccc4N[C@@H]1N1C(=O)C4(C)SS[C@]1(C(=O)N4C)[C@H]2O)[C@@H]3O` (stereo not given in full), the GI50 in the assay on A549 NSCLC is 153 nM and 2.54 µM; in the assay with SK-MEL-5 melanoma, 59 nM and 663 nM; in the assay on U251 CNS it was 60.8 nM and 1.21 µM. For the same compound, the TGI in the assay with HCT-15 colon was 97.9 nM and 1.06 µM; with U251 CNS, 246 nM and 2.64 µM.
